Results as given in the supplement of paper PMC7826260.
This is one part of the list. Viral Rep nickase domains cut single-stranded DNA in vitro (3 µM enzyme, 1 h, 37 °C); shown is the middle of each 90-letter strand. Numbers give uncut DNA relative to the enzyme-free pool, as log2; uncut sequences lie near 0, cut ones below; no hit call is given. The scaling is to total reads; where an enzyme cuts many sequences, the uncut ones exceed 0.

How the values were obtained:
Assay in all cases: uncleaved DNA left, log2 of reads against the no-enzyme library (log2 ratio); higher = less cleavage (more negative = more Rep cleavage of the k-mer); sequences stand for … in CTCGTCCG…ACCGGAGA
[1] = system: T1, Rep nickase domain of Muscovy duck circovirus
T1 sequence (residues 1-111 of Rep, tag left off): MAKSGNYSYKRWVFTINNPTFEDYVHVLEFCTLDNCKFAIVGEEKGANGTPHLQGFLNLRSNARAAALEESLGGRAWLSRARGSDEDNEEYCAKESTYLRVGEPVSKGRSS
Procedure: (§1)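 A pool of 90-nt single-stranded DNAs with seven random bases just before the constant AC of the nick site (name = the seven bases) was cut by 3 µM recombinant His6-SUMO-tagged Rep nickase domain (300 nM DNA, 50 mM HEPES pH 8.0, 50 mM NaCl, 1 mM MnCl2, 1 h, 37 °C, three replicates). Uncut DNA was amplified and sequenced.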

[2] = system: T2, Rep nickase domain of banana bunchy top virus
T2 sequence (residues 1-94 of Rep, tag left off): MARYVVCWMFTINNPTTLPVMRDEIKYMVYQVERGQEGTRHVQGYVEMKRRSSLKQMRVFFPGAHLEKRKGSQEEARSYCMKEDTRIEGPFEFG
Procedure: as §1

[3] = system: T3, Rep nickase domain of cabbage leaf curl virus
T3 sequence (residues 1-116 of Rep, tag left off): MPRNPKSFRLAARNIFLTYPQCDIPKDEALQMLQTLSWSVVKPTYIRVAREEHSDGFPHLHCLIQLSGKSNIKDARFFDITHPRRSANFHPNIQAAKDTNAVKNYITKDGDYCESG
Procedure: as §1

[4] = system: T4, Rep nickase domain of chickpea chlorotic dwarf virus
T4 sequence (residues 1-124 of Rep, tag left off): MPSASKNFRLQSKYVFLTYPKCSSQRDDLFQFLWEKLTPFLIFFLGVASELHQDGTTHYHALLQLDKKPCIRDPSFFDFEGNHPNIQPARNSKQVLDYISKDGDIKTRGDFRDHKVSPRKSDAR
Procedure: as §1

[5] = system: T5, Rep nickase domain of faba bean necrotic yellows virus
T5 sequence (residues 1-98 of Rep, tag left off): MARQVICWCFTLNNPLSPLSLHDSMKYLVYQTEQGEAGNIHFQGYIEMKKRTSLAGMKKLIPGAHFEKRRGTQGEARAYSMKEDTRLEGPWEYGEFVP
Procedure: as §1

[6] = system: T6, Rep nickase domain of maize striate mosaic virus
T6 sequence (residues 1-117 of Rep, tag left off): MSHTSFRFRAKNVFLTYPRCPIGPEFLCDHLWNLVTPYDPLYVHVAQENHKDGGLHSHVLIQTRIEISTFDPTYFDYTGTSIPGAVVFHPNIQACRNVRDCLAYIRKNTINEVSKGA
Procedure: as §1

[7] = system: T7, Rep nickase domain of porcine circovirus 2
T7 sequence (residues 2-116 of Rep, tag left off): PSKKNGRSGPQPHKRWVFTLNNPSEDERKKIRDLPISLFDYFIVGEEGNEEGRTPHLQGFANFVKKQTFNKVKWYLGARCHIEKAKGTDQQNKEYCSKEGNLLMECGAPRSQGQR
Procedure: as §1

[8] = system: T8, Rep nickase domain of tomato golden mosaic virus
T8 sequence (residues 1-124 of Rep, tag left off): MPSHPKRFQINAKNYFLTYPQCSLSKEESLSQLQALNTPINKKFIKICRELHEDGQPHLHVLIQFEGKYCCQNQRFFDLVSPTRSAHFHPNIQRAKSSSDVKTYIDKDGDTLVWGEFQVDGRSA
Procedure: as §1

[9] = system: T9, Rep nickase domain of tomato yellow leaf curl virus
T9 sequence (residues 1-136 of Rep, tag left off): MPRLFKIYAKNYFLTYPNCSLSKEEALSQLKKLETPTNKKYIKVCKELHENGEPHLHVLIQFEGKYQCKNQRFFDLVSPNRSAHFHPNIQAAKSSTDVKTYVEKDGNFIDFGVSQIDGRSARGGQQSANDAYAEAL
Procedure: as §1

[10] = system: T10, Rep nickase domain of wheat dwarf virus
T10 sequence (residues 1-137 of Rep, tag left off): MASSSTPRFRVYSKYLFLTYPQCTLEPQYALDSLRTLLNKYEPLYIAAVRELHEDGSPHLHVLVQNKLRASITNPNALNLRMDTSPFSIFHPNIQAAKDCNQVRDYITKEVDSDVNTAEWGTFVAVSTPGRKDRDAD
Procedure: as §1

Sequence	uncleaved DNA left (log2) [1]	uncleaved DNA left (log2) [2]	uncleaved DNA left (log2) [3]	uncleaved DNA left (log2) [4]	uncleaved DNA left (log2) [5]	uncleaved DNA left (log2) [6]	uncleaved DNA left (log2) [7]	uncleaved DNA left (log2) [8]	uncleaved DNA left (log2) [9]	uncleaved DNA left (log2) [10]
GCGAAAT	0.0788	0.0857	0.399	0.875	-0.0343	0.837	-0.00197	-0.00716	0.0113	0.132
GAGTCTC	-0.0109	-0.0603	0.41	0.657	-0.104	1.19	-2.7	0.00608	0.0351	0.19
AGGCCCC	-0.081	0.0081	0.777	1.51	0.0553	1.98	-0.0148	0.0968	0.00991	0.162
GTTTATA	0.177	0.0881	0.351	1.01	0.0491	1.87	0.161	0.176	0.155	0.239
GCAGCTG	0.000444	0.121	0.243	1.16	0.109	1.41	0.162	0.0856	-0.0494	-0.0426
CGCTTGT	-0.224	-0.195	-0.222	-0.227	-0.251	-0.482	-0.55	-0.228	-0.129	-0.154
AAATCGA	0.0201	0.048	-0.643	-0.976	0.0341	-1.36	0.0498	-0.00522	-0.0674	-0.0807
GTCGGCG	-0.0746	-0.0895	-0.723	-0.503	-0.113	-0.742	0.0269	-0.0103	0.0312	-0.227
CCTAAGC	0.0506	0.0344	-0.0299	-0.124	0.0929	-0.762	0.131	0.0148	0.0886	-0.0883
GTTTTGC	0.0758	-0.00428	-0.226	0.032	0.0932	-0.491	0.047	-0.0306	0.0233	0.033
CCCTTTT	-2.78	-0.322	-0.262	-2.48	-0.0703	-0.721	-3.25	-0.132	-0.0796	-0.233
TACAGAA	-0.0461	-0.0784	-0.0737	-0.771	0.00596	-0.734	-0.112	-0.0968	-0.108	-0.0818
CCTGTCT	-0.0697	-0.155	-0.267	-1.63	-0.133	-0.748	-0.375	-0.185	-0.0696	-0.225
CTTTGGG	-0.034	-0.0798	-0.729	-0.649	0.0409	-1.01	0.134	0.0152	0.00647	-0.0502
CGCAGCT	0.111	0.0831	0.226	0.222	0.0411	0.0342	0.1	0.106	-0.107	0.0151
